# Some of the results follow. At the low end of the ranking the order means little.
# System: T1, GST-NbGlk1(82-244)
# T1 sequence: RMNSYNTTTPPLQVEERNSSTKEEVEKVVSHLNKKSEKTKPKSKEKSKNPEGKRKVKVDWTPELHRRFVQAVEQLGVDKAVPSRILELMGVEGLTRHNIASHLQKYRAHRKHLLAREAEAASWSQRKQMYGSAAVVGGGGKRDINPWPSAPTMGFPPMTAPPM
# Assay: protein-binding microarray;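 further: rank-based score ranging −0.5 to +0.5 with E above 0.45 taken as significant binding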
# Settings: NbGlk1 is a Golden2-like transcription factor of Nicotiana benthamiana; high values mean tight binding; most listed sequences are background and not binding sites; double strand, one strand shown
row,Sequence,binding signal [E-score]
1,AGAATGCG,-0.0301
2,AGGTCTAC,-0.143
3,AGCAATCC,0.412
4,AAGATTTC,0.477
5,CACACCCG,-0.209
6,ACAGGGAT,0.0718
7,AATCCCGG,0.326
8,ACTGGTTA,-0.109
9,AACATAGT,-0.101
10,AGGGCAAG,-0.208
11,AATTAGGG,0.0441
12,CAAGGAGA,0.0857
13,ACCGTCGC,-0.269
14,ATTAGACG,-0.0148
15,AGCCGAGA,-0.0167
16,AGACCTCC,-0.27
17,ACTACGCG,0.0382
18,AGGGCATG,-0.265
19,ACCCGTAG,-0.178
20,ACGTCTTG,-0.149
21,ATGAGGGA,-0.0136
22,CAACGTTA,-0.0487
23,AATATGCT,0.115
24,ATAAGTAT,0.0941
25,AAGCCATA,-0.133

row,Sequence,binding signal [E-score]
1,ACTTACGC,-0.0622
2,AGTGAGTC,-0.164
3,ACGGCATA,-0.00409
4,ATAGGAAA,0.192
5,AGACCTCT,-0.138
6,AGCCGAAA,0.0198
7,ACCAAACC,-0.149
8,AACTACCG,0.0236
9,CACTTCGA,0.0443
10,CAAAGCGG,-0.0361
11,ACTTAACT,-0.0443
12,AAAATTGA,0.123
13,CACGTTGC,-0.0192
14,AACCAGTA,-0.012
15,AATTGCCC,0.0735
16,ACACTGTA,0.0714
17,CAAAACTA,0.0978
18,ACTTTGTA,-0.0223
19,AAGATCAT,0.214
20,AGAATAAC,0.136
21,ATGCTAGA,-0.0343
22,CAGAGTAA,0.0048
23,AGCTGGCG,-0.132
24,ATGAATTC,0.0427
25,ACAATGTC,-0.0634

row,Sequence,binding signal [E-score]
1,AGTGTGCC,-0.251
2,ACGTTGCG,-0.0644
3,AAAGCCGG,-0.145
4,ATCGCATG,0.29
5,AGGTTCAC,-0.121
6,AAAAAGGT,-0.156
7,AAATTGCG,0.262
8,AGCGACAT,-0.0052
9,AAGTATTG,0.0706
10,AATTATCC,0.204
11,AATACTAT,0.0517
12,AGCGTACG,-0.223
13,AGGCACGA,-0.134
14,ATCGTAAT,0.375
15,AATGCAAC,0.0364
16,ATAATCTG,0.356
17,AGACGTAT,0.0365
18,ACGCGACT,-0.18
19,ATCGGACG,-0.0904
20,CACTTTAG,-0.0666
21,ATCTGCAG,0.284
22,ACGAAGAC,-0.107
23,ATGCTTAC,-0.0841
24,CAAACGGA,0.0467
25,AATGTGAC,-0.126

row,Sequence,binding signal [E-score]
1,ACATCCGA,0.0402
2,ACGATGTC,-0.104
3,AGTGTAAG,0.000137
4,ATCTCAGC,0.22
5,ATTACTAC,0.166
6,ATCCCTGC,0.0952
7,AACTTCGA,-0.0409
8,AAGGACAA,0.0386
9,AGGAGAAG,-0.122
10,CAGAGATC,0.312
11,ATGTGCAA,0.0252
12,ACAAATCA,0.262
13,AGGATGAC,-0.0664
14,ACACGGGT,-0.166
15,ATCCAGCG,0.0657
16,AGATACGA,0.332
17,AGCCCGTC,-0.184
18,ACGTTGCC,-0.209
19,ACACCGCG,-0.14
20,ATGCATGA,-0.0778
21,ACCACACC,-0.0584
22,AAGGCGAA,-0.0188
23,AGTCGCTG,-0.16
24,CAGACCGC,-0.152
25,ATTGTGTC,0.225

row,Sequence,binding signal [E-score]
1,ACTATTTA,-0.0278
2,ACTATGCT,-0.0712
3,ATACAGGA,0.175
4,AACAGGAT,0.234
5,CAAAGTCA,-0.06
6,AATGAACC,-0.172
7,ACTGTGGG,-0.172
8,ACCGCCCC,-0.226
9,AGACAGTG,-0.0618
10,ACATCAAC,-0.0246
11,AGGCAGAG,0.0424
12,ATCAAATC,0.36
13,AAATCTAG,0.452
14,AAGTCCGA,-0.0569
15,AGTGGGTG,-0.192
16,ACATGCCT,-0.0526
17,ACTTCGAT,0.152
18,AAACGTGG,-0.06
19,ATCCCATG,0.13
20,AGGAAACG,-0.197
21,CACCCGCG,-0.195
22,AATCGGGC,0.192
23,ACAAGGCT,-0.268
24,ATTATGAG,0.0798
25,ACACGACC,-0.148

row,Sequence,binding signal [E-score]
1,ATGACGCC,-0.259
2,AGGATACT,0.199
3,AATAAGCG,-0.039
4,ATTACTTC,0.179
5,AATCCCGC,0.335
6,ACCCCACC,-0.177
7,AGGAAGGC,-0.271
8,ACTCCATA,-0.00303
9,ATAACAGG,-0.0844
10,AGGCCAAA,-0.201
11,ATATTCTC,0.402
12,AGCTGGAA,-0.0711
13,CACTAAAC,-0.0712
14,ACCACTTC,-0.16
15,ATCCACGA,0.28
16,AGCGAGTG,0.00664
17,AAGTTCTC,-0.131
18,ATTAGCTG,0.0421
19,AAAACGAT,0.0892
20,ACCTACCG,-0.0779
21,ATACAGCC,-0.0585
22,AGGCCGGA,-0.0602
23,ACGGATAC,0.261
24,ACCAAATG,0.0403
25,AGAATCGG,0.375

row,Sequence,binding signal [E-score]
1,ACAGAAGT,-0.0605
2,AGGGATAT,0.353
3,ATGCAGAA,0.16
4,ACCCTGAT,0.0699
5,ACTTCTGG,-0.119
6,ACCACGTC,-0.204
7,CAACGCTC,-0.251
8,AGGGTCAG,-0.165
9,AAACGGTT,-0.148
10,CAAAGTGG,-0.114
11,CAGAATAC,0.0173
12,ACCTAACC,-0.0544
13,ATTTTGAG,0.194
14,ACAATAGG,0.0112
15,ACATTAGT,-0.0066
16,AATTTTTG,0.0437
17,AAGATGCG,-0.00465
18,CACTTACA,0.0237
19,AATGGGTG,0.0229
20,ACTCCAGT,-0.142
21,ATGCCCCG,-0.025
22,CAACGAAG,-0.0482

# Source: publication PMC5836133
